Measurements from PubChem BioAssay AID1745845 (National Center for Advancing Translational Sciences (NCATS), 2022).
The campaign covered roughly 360,000 compounds. About 2,600 (0.72%) were called active. The inconclusive results got no clear call from the source; some entries with a clear call stand among them for comparison. Calls follow the shape of the dose curve; as a rule, active = well fitted inhibition curve with a large enough effect; inconclusive = small, poorly fitted or top-dose-only effect; inactive = no such curve, though single readings can be large or run the other way. Potencies of inconclusive entries are doubtful fits and often do not repeat.

Assay: Primary qHTS for Inhibitors of ATXN expression; also: nearly all actives have a fitted effect of over 55% in size
Conditions: HEK-293 ATXN2-luciferase reporter, luminescence, 24 h; activity change, negative = inhibition: at 57 µM (top of the series)
Method in brief: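 ATXN2-luciferase reporter cells (luciferase flanked by upstream and downstream ATXN2 gene portions) were treated 24 h at 37 °C with compounds at up to 57 uM. SteadyGlo luminescence gave expression; GF-AFC fluorescence gave viability.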
% is scaled to controls: 0 for no effect and ±100 for the full control effect; potency is read from the fitted curve at half-maximal effect; tags tell the direction and shape of the fitted curve.

Question: With `COc1ccc(C(=O)NCCn2cc(SCC(=O)Nc3ccccc3)c3ccccc32)cc1OC` as the molecule, how does the “activity change, negative = inhibition” value read?
Answer: inactive: -35.8%

Question: Which “activity change, negative = inhibition” value does the source give for `O=C(/C=C/c1ccccc1)COC(=O)c1ccccc1` here?
Answer: inactive: 0.65%

Question: For `Cc1ccc(S(=O)(=O)N(C)C[C@@H]2Oc3ccc(NC(=O)CCC(F)(F)F)cc3CC(=O)N([C@@H](C)CO)C[C@@H]2C)cc1`, which “activity change, negative = inhibition” value is on record?
Answer: inactive: -14.3%

Question: For `CN(Cc1ccccc1)C(=O)c1ccc(NC(=O)C2CCN(C(=O)OC(C)(C)C)CC2)cc1`, which Potency is on record?
Answer: active: 25.1 µM

Question: For `CN(C)CCNc1ncnc2c1sc1nc(N3CCCC3)c3c(c12)CC(C)(C)OC3`, which Potency is on record?
Answer: inconclusive: 17.8 µM [inhibitor, partial curve, poor fit]

Question: Which Potency does the source give for `COc1cccc2sc3cc(C#CC4(O)CCCCC4)ccc3c(=O)c12` here?
Answer: inconclusive: 39.8 µM [inhibitor, single point]

Question: For `O=C1C(C2=NC(c3ccccn3)C3C(=O)N(c4ccc(OC(F)(F)F)cc4)C(=O)C23)=C(O)c2ccccc21` (stereo not drawn), which Potency is on record?
Answer: inconclusive: 13.4 µM [inhibitor, partial curve, poor fit]

Question: Which “activity change, negative = inhibition” value does the source give for `CC1CCN(Cc2cnc(Cl)s2)CC1` here?
Answer: inactive: 4.03%

Question: For `COc1ccccc1CCNC(=O)c1ccc(NC(=O)N2CC(C)Sc3ccccc32)cc1` (stereo not drawn), which “activity change, negative = inhibition” value is on record?
Answer: inactive: -15.6%

Question: For `CCCCNC(=O)CNC(=S)N(Cc1ccc(C)cc1)Cc1ccco1`, which Potency is on record?
Answer: inconclusive: 2.38 µM [inhibitor, partial curve, poor fit]

Question: Which “activity change, negative = inhibition” value does the source give for `COc1ccc(-c2ccc(CN3C(CC(C)C)C(=O)N(Cc4cn(CC5CCCCC5)nn4)CCS3(=O)=O)cc2)cc1` (stereo not drawn) here?
Answer: inactive: -17.1%

Question: With `COc1ccc2cc(C(=O)C3CCCN(Cc4cnc(C)s4)C3)ccc2c1` (stereo not drawn) as the molecule, how does the activity change, negative = inhibition read?
Answer: inconclusive: -44.9% [inhibitor]

Question: With `CN(C)CCNc1oc(COc2ccc(-c3ccccc3)cc2)nc1C#N` as the molecule, how does the Potency read?
Answer: inconclusive: 25.1 µM [inhibitor, partial curve]

Question: For `O=C1CCC(C(=O)N2CCCCCCC2)CN1Cc1cccc(C(F)(F)F)c1` (stereo not drawn), which “activity change, negative = inhibition” value is on record?
Answer: inactive: 0.71%

Question: For `Cc1cc(Oc2nc3c(C)cccn3c(=O)c2/C=C(\C#N)S(=O)(=O)c2ccccc2)ccc1Cl`, which Potency is on record?
Answer: inconclusive: 35.5 µM [inhibitor, single point]

Question: With `Cc1ccc(N=Cc2nc(/C=C/c3cccc([N+](=O)[O-])c3)oc2O)cc1` as the molecule, how does the Potency read?
Answer: inconclusive: 39.8 µM [inhibitor, single point]

Question: For `C/C(=N\NC(=O)C1(C)CC1(Br)Br)c1cccc(NC(=O)c2ccc(C)o2)c1` (stereo not drawn), which Potency is on record?
Answer: inconclusive: 39.8 µM [inhibitor, single point]

Question: Which Potency does the source give for `COC(=O)C(Nc1ccccc1Cl)(c1cc(C)c(O)c(C)c1)C(F)(F)F` (stereo not drawn) here?
Answer: inconclusive: 31.6 µM [inhibitor, partial curve, poor fit]

Question: Which “activity change, negative = inhibition” value does the source give for `CCC(NC(=O)CC[C@H]1O[C@@H](n2cc(C)c(=O)[nH]c2=O)C[C@@H]1O)c1ccccc1` (stereo partly drawn) here?
Answer: inactive: 4.66%

Question: Which “activity change, negative = inhibition” value does the source give for `O=C(Nc1cccc(O)c1)c1cc(-c2ccco2)on1` here?
Answer: inactive: 49.7%

Question: For `CCC(CC)C(=O)N(C)c1c(C)nc2c(OCC(=O)N(C)C)cccn12`, which “activity change, negative = inhibition” value is on record?
Answer: inactive: 2.74%

Question: Which Potency does the source give for `COc1cccc(-c2cccc(-c3nc(C(=O)NCc4ccc5c(c4)OCO5)cc4c3[C@H](CCO)N(S(=O)C(C)(C)C)C4)c2)c1` (stereo partly drawn) here?
Answer: inconclusive: 28.2 µM [inhibitor, single point]

Question: Which Potency does the source give for `CC(=O)c1cccc(Nc2c3c(nc4ccccc24)CCC3)c1` here?
Answer: inconclusive: 7.94 µM [inhibitor, partial curve]

Question: Which “activity change, negative = inhibition” value does the source give for `COc1ccc(Cl)cc1NC(=O)Cn1nnc2sc3c(c2c1=O)CCC(C(C)(C)C)C3` (stereo not drawn) here?
Answer: inactive: 10.9%

Question: Which Potency does the source give for `C=C(C(=O)c1ccccc1)C(CC(=O)c1ccccc1)c1ccccc1` (stereo not drawn) here?
Answer: active: 25.1 µM

Question: With `CCOC(=O)c1c(Nc2cccc(O)c2)nnc(-c2ccccc2)c1-c1ccccc1` as the molecule, how does the Potency read?
Answer: inconclusive: 39.8 µM [inhibitor, single point]

Question: Which Potency does the source give for `Cc1cc(C(=O)Cn2ncc(Cl)c(Cl)c2=O)c(C)n1CC(F)(F)F` here?
Answer: inconclusive: 39.8 µM [inhibitor, single point]

Question: Which Potency does the source give for `COc1c(Cl)cc(C(=O)Nc2cccc(-c3nc4ccccc4[nH]3)c2)cc1Cl` here?
Answer: inconclusive: 28.2 µM [inhibitor, single point]

Question: For `Cc1ccc(C(=O)c2sc(Nc3ccccc3F)c(S(=O)(=O)c3ccccc3)c2N)c(C)c1`, which “activity change, negative = inhibition” value is on record?
Answer: inactive: 10.7%

Question: Which “activity change, negative = inhibition” value does the source give for `O=C(NCc1nnc(SCC(=O)N2CCOCC2)o1)c1cccs1` here?
Answer: inactive: -8.71%

Question: With `COc1ccccc1OCc1ccc(C(=O)N2CCCCC2)o1` as the molecule, how does the “activity change, negative = inhibition” value read?
Answer: inactive: 26.3%

Question: For `CCC1=Nc2cc(C(=O)NCCCOC)ccc2Sc2ccccc21`, which “activity change, negative = inhibition” value is on record?
Answer: inactive: 3.4%

Question: For `CCN1CCN(C(=O)c2ccc3c(c2)N(Cc2ccc(Cl)cc2)C(=O)c2ccccc2S3(=O)=O)CC1`, which Potency is on record?
Answer: inconclusive: 35.5 µM [inhibitor, partial curve, poor fit]

Question: For `Cc1cc(C)c(S(=O)(=O)Nc2cc(-c3cn4ccccc4n3)ccc2C)cc1C`, which Potency is on record?
Answer: inconclusive: 39.8 µM [inhibitor, single point]

Question: Which “activity change, negative = inhibition” value does the source give for `CC(C)C1C(=O)N(Cc2cn(CC3CCCCC3)nn2)CCS(=O)(=O)N1Cc1ccc(-c2ccccc2)cc1` (stereo not drawn) here?
Answer: inactive: -31.6%

Question: For `CCN1C(=NCC2CC2)N[C@@H](c2cccc(C(F)(F)F)c2)C(C(=O)OC)=C1C`, which Potency is on record?
Answer: inconclusive: 0.891 µM [inhibitor, full curve, poor fit]

Question: Which “activity change, negative = inhibition” value does the source give for `CC(C)NC(=O)c1ccc2c(=O)n(C3CCCC3)c(=S)[nH]c2c1` here?
Answer: inactive: -2.92%

Question: Which Potency does the source give for `CO[C@@H]1[C@@H](O)[C@H](O)[C@@H](n2c3c(Cl)cccc3c3c4c(c5c6cccc(Cl)c6[nH]c5c32)C(=O)NC4=O)O[C@@H]1CO` here?
Answer: active: 0.273 µM

Question: With `CCc1ccccc1NC(=O)Nc1cc(C(=O)NCc2ccc(C(C)C)cc2)ccc1N1CCCC1` as the molecule, how does the “activity change, negative = inhibition” value read?
Answer: inactive: 11.9%

Question: With `COc1ccc(NC(=O)c2ccc3c(=O)n(Cc4ccco4)c(=S)[nH]c3c2)c(OC)c1` as the molecule, how does the Potency read?
Answer: inconclusive: 20 µM [inhibitor, partial curve, poor fit]

Question: For `Cc1nc2c(-c3ccc(F)cc3)c(C)nn2c(C)c1CCC(=O)N1CCC(Cc2ccccc2)CC1`, which Potency is on record?
Answer: inconclusive: 31.6 µM [inhibitor, single point]

Question: With `COc1ccc(NS(=O)(=O)c2cc(NC(=O)C3CCCO3)ccc2N2CCCCC2)cc1` (stereo not drawn) as the molecule, how does the Potency read?
Answer: inconclusive: 10 µM [inhibitor, partial curve, poor fit]

Question: For `COc1cc(Cl)c(C)cc1NC(=O)c1cc(CN2CCOCC2)on1`, which “activity change, negative = inhibition” value is on record?
Answer: inactive: -1.73%
